Some of the results follow. Some results are limits rather than exact numbers.

In a collection of fitness landscapes (doi:10.1126/science.1257360) one finds enrichment ratio data, which are given here for 195 variants.

Sequences and labels used below:
B1: PhoQ; a variant is named by its letters at X, in order, P23837 (parent)
chain: MKKLLRLFFPLSLRVRFLLATAAVVLVLSLAYGMVALIGYSVSFDKTTFRLLRGESNLFYTLAKWENNKLHVELPENIDKQSPTMTLIYDENGQLLWAQRDVPWLMKMIQPDWLKSNGFHEIEADVNDTSLLLSGDHSIQQQLQEVREDDDDAEMTHSVAVNVYPATSRMPKLTIVVVDTIPVELKSSYMVWSWFIYVLSANLLLVIPLLWVAAWWSLRPIEALAKEVRELEEHNRELLNPATTRELTSLVRNLNRLLKSERERYDKYRTTLTDLTHSLKTPLXXLQXXLRSLRSEKMSVSDAEPVMLEQISRISQQIGYYLHRASMRGGTLLSRELHPVAPLLDNLTSALNKVYQRKGVNISLDISPEISFVGEQNDFVEVMGNVLDNACKYCLEFVEISARQTDEHLYIVVEDDGPGIPLSKREVIFDRGQRVDTLRPGQGVGLAVAREITEQYEGKIVAGESMLGGARMEVIFGRQHSAPKDE

The variants in this assay derive from B1. As to the kind of experiment: enrichment ratio after two sorts for PhoP signalling (ratio (wild type AVST 3.29)); higher = more functional. As to conditions: with PhoP (E. coli).
For PHQW, the enrichment ratio is no more than 0.25.

As to KQYM, the enrichment ratio was no more than 0.25.

In the case of FAAY, the enrichment ratio is no more than 0.25.

With TSIH, the enrichment ratio was no more than 0.25.

As for HDPI, the enrichment ratio was no more than 0.25.

For the variant EQCY, the enrichment ratio is no more than 0.25.

Consider WMPM, for which the enrichment ratio is no more than 0.25.

Take YLMW: the enrichment ratio was no more than 0.25.

SHFD: the enrichment ratio is no more than 0.25.

FYPW: the enrichment ratio is no more than 0.25.

As to AMPF, the enrichment ratio was no more than 0.25.

For FHID, the enrichment ratio was no more than 0.25.

For the variant PWSE, the enrichment ratio is no more than 0.25.

For ICTY, the enrichment ratio is no more than 0.25.

As to WQHY, the enrichment ratio was no more than 0.25.

As to HDQF, the enrichment ratio was no more than 0.25.

Turning to QGVK, the enrichment ratio is no more than 0.25.

For the variant NLFR, the enrichment ratio was no more than 0.25.

On to TSKF, for which the enrichment ratio is no more than 0.25.

On to RWHP, for which the enrichment ratio is no more than 0.25.

Take TMEQ: the enrichment ratio is no more than 0.25.

Regarding FEME, the enrichment ratio was no more than 0.25.

For FNYT, the enrichment ratio was no more than 0.25.

For the variant TERG, the enrichment ratio is no more than 0.25.

For the variant IWMC, the enrichment ratio is no more than 0.25.

With SHPN, the enrichment ratio was no more than 0.25.

For the variant HILN, the enrichment ratio is no more than 0.25.

Turning to YAVQ, the enrichment ratio was no more than 0.25.

Regarding IKFI, the enrichment ratio was no more than 0.25.

For the variant NECT, the enrichment ratio was 14.1.

As for KQCM, the enrichment ratio was no more than 0.25.

Turning to FDHR, the enrichment ratio was no more than 0.25.

Regarding QVCY, the enrichment ratio was no more than 0.25.

Regarding TAYP, the enrichment ratio is no more than 0.25.

For SFPL, the enrichment ratio was no more than 0.25.

On to TTDF, for which the enrichment ratio came out at 16.9.

Take LEVM: the enrichment ratio was determined as 0.945.

For the variant WFIN, the enrichment ratio is no more than 0.25.

As for FVTI, the enrichment ratio is no more than 0.25.

For the variant KHIC, the enrichment ratio was no more than 0.25.

PTIT: the enrichment ratio is no more than 0.25.

SHEY: the enrichment ratio is no more than 0.25.

With LDDQ, the enrichment ratio is no more than 0.25.

For the variant SAGL, the enrichment ratio was 6.17.

Regarding AIVT, the enrichment ratio amounted to 4.68.

As for TTTA, the enrichment ratio was 5.71.

On to AFGG, for which the enrichment ratio was no more than 0.25.

Regarding PTYQ, the enrichment ratio is no more than 0.25.

Regarding LSAQ, the enrichment ratio was no more than 0.25.

Regarding LTSP, the enrichment ratio is no more than 0.25.

Consider SQEL, for which the enrichment ratio was no more than 0.25.

In the case of IFIF, the enrichment ratio was no more than 0.25.

Regarding LDDF, the enrichment ratio was no more than 0.25.

On to EDYQ, for which the enrichment ratio was no more than 0.25.

As for PGMA, the enrichment ratio is no more than 0.25.

For FIAW, the enrichment ratio was no more than 0.25.

Turning to QARW, the enrichment ratio is no more than 0.25.

For NSGL, the enrichment ratio is no more than 0.25.

For the variant ENCR, the enrichment ratio was no more than 0.25.

On to GPCC, for which the enrichment ratio was no more than 0.25.

RDYS: the enrichment ratio is no more than 0.25.

Turning to IICA, the enrichment ratio is no more than 0.25.

As to LFNW, the enrichment ratio was no more than 0.25.

KYNV: the enrichment ratio was no more than 0.25.

On to WQMH, for which the enrichment ratio is no more than 0.25.

With SQSE, the enrichment ratio came to 11.4.

As to MCMQ, the enrichment ratio was found to be 5.75.

As to YTQY, the enrichment ratio was no more than 0.25.

With HCFF, the enrichment ratio is no more than 0.25.

Consider YWYY, for which the enrichment ratio is no more than 0.25.

On to DMVT, for which the enrichment ratio is no more than 0.25.

As to HMEV, the enrichment ratio is no more than 0.25.

In the case of FQHT, the enrichment ratio is no more than 0.25.

In the case of WNVH, the enrichment ratio was no more than 0.25.

Take LHDQ: the enrichment ratio was no more than 0.25.

For the variant IDRK, the enrichment ratio is no more than 0.25.

With ESSK, the enrichment ratio was no more than 0.25.

AMCS: the enrichment ratio worked out at 5.27.

Consider HEFK, for which the enrichment ratio was no more than 0.25.

Turning to DFQI, the enrichment ratio is no more than 0.25.

For the variant ELVA, the enrichment ratio is no more than 0.25.

In the case of QSTQ, the enrichment ratio was no more than 0.25.

LRAS: the enrichment ratio was no more than 0.25.

Consider ELQH, for which the enrichment ratio is no more than 0.25.

With TDHD, the enrichment ratio was no more than 0.25.

Regarding SSAF, the enrichment ratio was 7.52.

On to NVDL, for which the enrichment ratio was no more than 0.25.

KSQT: the enrichment ratio was no more than 0.25.

Take YYIT: the enrichment ratio is no more than 0.25.

EQVG: the enrichment ratio is no more than 0.25.

HISC: the enrichment ratio is no more than 0.25.

Consider MKAG, for which the enrichment ratio was no more than 0.25.

Regarding PPKY, the enrichment ratio is no more than 0.25.

As for TNPW, the enrichment ratio was no more than 0.25.

Take PTVL: the enrichment ratio is no more than 0.25.

Regarding ITPV, the enrichment ratio was no more than 0.25.

Take FMLH: the enrichment ratio was 0.413.

Consider RRCC, for which the enrichment ratio is no more than 0.25.

Regarding YPQL, the enrichment ratio is no more than 0.25.

Take DAWP: the enrichment ratio was no more than 0.25.

For WGYH, the enrichment ratio was no more than 0.25.

As to ENTA, the enrichment ratio was no more than 0.25.

With TFIW, the enrichment ratio is no more than 0.25.

For GSHH, the enrichment ratio is no more than 0.25.

Regarding AQWK, the enrichment ratio is no more than 0.25.

For GCDA, the enrichment ratio was no more than 0.25.

Turning to SMKV, the enrichment ratio was no more than 0.25.

For FEEL, the enrichment ratio is no more than 0.25.

In the case of SRQM, the enrichment ratio is no more than 0.25.

As to SVMD, the enrichment ratio was 3.38.

In the case of GSSQ, the enrichment ratio came out at 8.65.

As to VCFV, the enrichment ratio was no more than 0.25.

FGPI: the enrichment ratio was no more than 0.25.

As for IKYC, the enrichment ratio was no more than 0.25.

YNLP: the enrichment ratio was no more than 0.25.

For SDFC, the enrichment ratio is no more than 0.25.

GLHW: the enrichment ratio was no more than 0.25.

With IAPA, the enrichment ratio is no more than 0.25.

Take IDAG: the enrichment ratio was no more than 0.25.

As for IIEC, the enrichment ratio is no more than 0.25.

Take FDQT: the enrichment ratio was no more than 0.25.

On to FMYK, for which the enrichment ratio is no more than 0.25.

Turning to KCEN, the enrichment ratio is no more than 0.25.

In the case of KTHI, the enrichment ratio is no more than 0.25.

Turning to MFQS, the enrichment ratio was no more than 0.25.

In the case of SWVT, the enrichment ratio is no more than 0.25.

Take LSTQ: the enrichment ratio is no more than 0.25.

Consider VCGF, for which the enrichment ratio was no more than 0.25.

For TEHD, the enrichment ratio is no more than 0.25.

As for KCVF, the enrichment ratio was no more than 0.25.

In the case of SRWV, the enrichment ratio is no more than 0.25.

Consider QVFY, for which the enrichment ratio was no more than 0.25.

With IDPM, the enrichment ratio is no more than 0.25.

In the case of WDNK, the enrichment ratio is no more than 0.25.

Consider GQVA, for which the enrichment ratio was no more than 0.25.

Turning to YSEP, the enrichment ratio is no more than 0.25.

As to IPFK, the enrichment ratio was no more than 0.25.

Take SKTM: the enrichment ratio was 6.18.

On to FHWK, for which the enrichment ratio is no more than 0.25.

In the case of WCPM, the enrichment ratio was no more than 0.25.

For the variant AATV, the enrichment ratio turned out to be 6.21.

In the case of GDTR, the enrichment ratio is no more than 0.25.

In the case of HSFN, the enrichment ratio was no more than 0.25.

On to GKSY, for which the enrichment ratio was no more than 0.25.

As to DVPP, the enrichment ratio was no more than 0.25.

In the case of QHFH, the enrichment ratio is no more than 0.25.

Turning to PKTN, the enrichment ratio was no more than 0.25.

SFGP: the enrichment ratio is no more than 0.25.

Consider KITS, for which the enrichment ratio was no more than 0.25.

Regarding AELH, the enrichment ratio is 11.9.

With RVVK, the enrichment ratio is no more than 0.25.

Consider YAHM, for which the enrichment ratio was no more than 0.25.

Turning to WSEM, the enrichment ratio is no more than 0.25.

Consider FNNP, for which the enrichment ratio is no more than 0.25.

Regarding RGAI, the enrichment ratio is no more than 0.25.

For SGIK, the enrichment ratio was no more than 0.25.

Consider PFKG, for which the enrichment ratio is no more than 0.25.

Regarding PMSL, the enrichment ratio is no more than 0.25.

For FKAT, the enrichment ratio was no more than 0.25.

For TQCA, the enrichment ratio was 17.6.

Consider AYNW, for which the enrichment ratio is no more than 0.25.

As to DSCV, the enrichment ratio was no more than 0.25.

RKFT: the enrichment ratio is no more than 0.25.

On to NFGI, for which the enrichment ratio was no more than 0.25.

With WNGH, the enrichment ratio is no more than 0.25.

GQYC: the enrichment ratio is no more than 0.25.

In the case of GGFY, the enrichment ratio was no more than 0.25.

Take QMMM: the enrichment ratio was no more than 0.25.

As for KKLA, the enrichment ratio is no more than 0.25.

Consider AGDV, for which the enrichment ratio was no more than 0.25.

As for SIGK, the enrichment ratio was determined as 4.3.

Turning to LWEN, the enrichment ratio was no more than 0.25.

On to ENMM, for which the enrichment ratio was no more than 0.25.

Regarding SRRR, the enrichment ratio was no more than 0.25.

Turning to EMTA, the enrichment ratio is no more than 0.25.

For the variant GSQD, the enrichment ratio was no more than 0.25.

Take GHKS: the enrichment ratio was no more than 0.25.

TDTT: the enrichment ratio was determined as 3.25.

For the variant VIYL, the enrichment ratio was no more than 0.25.

Regarding TTNY, the enrichment ratio amounted to 25.4.

For the variant LSFK, the enrichment ratio was no more than 0.25.

Regarding KYHD, the enrichment ratio was no more than 0.25.

Regarding NSQW, the enrichment ratio was no more than 0.25.

Take KVQA: the enrichment ratio was no more than 0.25.

EAES: the enrichment ratio was no more than 0.25.

Take WEKI: the enrichment ratio is no more than 0.25.

As for TKWN, the enrichment ratio was no more than 0.25.

Turning to QMTR, the enrichment ratio was no more than 0.25.

As to PYSK, the enrichment ratio was no more than 0.25.

KKEI: the enrichment ratio was no more than 0.25.

YTEV: the enrichment ratio was no more than 0.25.

Take MWAN: the enrichment ratio was no more than 0.25.

For SCAF, the enrichment ratio stood at 16.3.

Take YGPA: the enrichment ratio was no more than 0.25.

On to EMFA, for which the enrichment ratio is no more than 0.25.
